Results taken from US20210162061A1 (DINGFU BIOTARGET, published 2021).

B1: SIRPα-Fc IgG1 (Fc fusion)
chain: not shown
notes: also called human SIRPα-Fc IgG1; Group 7
B2: hu56di-SIRPα (Fc fusion)
chain 1: QVQLVESGGGLVQPGGSLRLSCAASGKMSSRRCMAWFRQAPGKERERVAKLLTTSGSTYLADSVKGRFTISRDNSKNTVYLQMNSLRAEDTAVYYCAADSFEDPTCTLVTSSGAFQYWGQGTLVTVSSGAPQVQLVESGGGLVQPGGSLRLSCAASGKMSSRRCMAWFRQAPGKERERVAKLLTTSGSTYLADSVKGRFTISRDNSKNTVYLQMNSLRAEDTAVYYCAADSFEDPTCTLVTSSGAFQYWGQGTLVTVSSEPKSSDKTHTCPPCPAPELLGGPSVFLFPPKPKDTLMISRTPEVTCVVVDVSHEDPEVKFNWYVDGVEVHNAKTKPREEQYNSTYRVVSVLTVLHQDWLNGKEYKCKVSNKALPAPIEKTISKAKGQPREPQVYTLPPCRDELTKNQVSLWCLVKGFYPSDIAVEWESNGQPENNYKTTPPVLDSDGSFFLYSALTVDKSRWQQGNVFSCSVMHEALHNHYTQKSLSLSPGK
chain 2: [not shown - about 120 residues][not shown - about 250 residues]
notes: One SIRPα arm, two anti-PD-L1 domains; also called hu56di-SIRPα immunoconjugate; Group 5

Molecular target: T1, CD47-muFc (human)
T1 construct: also called CD47-muFc fusion protein; Group 8
Assay: BLI (Octet K2), CD47-muFc immobilised on AHC biosensors, 25 C

Chain of CD47-muFc (chain, as listed by the source limits assumed): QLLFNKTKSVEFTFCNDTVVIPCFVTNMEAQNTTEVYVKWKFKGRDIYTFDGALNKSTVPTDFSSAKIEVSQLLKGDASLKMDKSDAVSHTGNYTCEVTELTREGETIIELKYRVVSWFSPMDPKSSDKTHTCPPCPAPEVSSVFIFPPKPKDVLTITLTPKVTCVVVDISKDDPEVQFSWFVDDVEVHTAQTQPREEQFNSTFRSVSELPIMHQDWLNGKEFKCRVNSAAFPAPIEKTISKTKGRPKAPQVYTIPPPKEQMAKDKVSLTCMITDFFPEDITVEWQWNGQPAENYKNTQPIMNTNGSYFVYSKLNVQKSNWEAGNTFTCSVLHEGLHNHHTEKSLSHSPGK

Binder	Kd	koff	kon
B1	5.81 nM	0.00377 s⁻¹	650000 M⁻¹ s⁻¹
B2	5.3 nM	0.00607 s⁻¹	1.14e+06 M⁻¹ s⁻¹
